Results from PubChem BioAssay AID1745845 (National Center for Advancing Translational Sciences (NCATS), 2022).
The whole screen tested about 360,000 compounds, of which about 2,600 (0.72%) were called active. The shares of active, inactive and inconclusive entries below differ from those in the screen. Calls come from the whole dose curve; as a rule, active = well fitted inhibition curve with a large enough effect; inconclusive = small, poorly fitted or top-dose-only effect; inactive = no such curve, though single readings can be large or run the other way. A potency beside an inconclusive call is a rough fit, not a confirmed value.

Experiment: Primary qHTS for Inhibitors of ATXN expression; note: nearly all actives have a fitted effect of over 55% in size
Settings: HEK-293 ATXN2-luciferase reporter, luminescence, 24 h; activity change, negative = inhibition: at 57 µM (top of the series)
Outline: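 qHTS (up to 57 uM final) was run with 24 h compound exposure of reporter cells at 37 °C. Each well was multiplexed: SteadyGlo luminescence measured ATXN2-luciferase expression after a fluorogenic Gly-Phe-AFC viability readout (25 uM final).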
% is set by controls: 0 for no effect and ±100 for the full control effect; potency is the fitted concentration of half-maximal effect; tags give direction and shape of the fitted curve.

Structure (SMILES) | Potency | activity change, negative = inhibition
CCOC(=O)N1C(=O)[C@@](c2ccc(Cl)cc2)(C(C)C)N1C(=O)OCC | inconclusive: 35.5 µM [inhibitor, single point] | –
O=C(Nc1ccc(Cl)cc1)Nc1ccc(Cl)c(C(F)(F)F)c1 | inconclusive: 15.8 µM [inhibitor, full curve, poor fit] | –
CCc1nnc(N/N=C/c2ccc(N3CCC(C)CC3)c([N+](=O)[O-])c2)n1N | – | inactive: -21.9%
COc1ccc(C(=O)N/N=C/c2ccc(OC)c(CN3CCN(c4ccc(F)cc4)CC3)c2)cc1 | – | inactive: -3.44%
CCc1nc2ccc(C(=O)Nc3cc(-c4ccccc4)ccc3OC)cn2c1N(CC)CC(=O)N(C)C | inconclusive: 39.8 µM [inhibitor, single point] | –
CCCC(=O)NC(c1ccc(Cl)cc1Cl)c1ccc2cccnc2c1O (centres undefined) | inconclusive: 3.16 µM [inhibitor, full curve, poor fit] | –
Cc1cnc(C(=O)Nc2cccc3cccnc23)cn1 | inconclusive: 1.12 µM [inhibitor, full curve, poor fit] | –
COCCSc1nnc(NC(=O)CCS(=O)(=O)c2ccccc2)s1 | – | inactive: 38.5%
COc1ccccc1Sc1nc(-c2ccccn2)ncc1OC | inconclusive: 7.08 µM [inhibitor, full curve] | –
O=C(/C=C/c1ccc(F)cc1)NC(=S)N1CCN(c2ccccn2)CC1 | – | inactive: 64.9%
Cc1ccccc1C(=O)NNC(=S)Nc1cccc(C(F)(F)F)c1 | inconclusive: 37.7 µM [inhibitor, single point] | –
COc1ccc(CCNc2ccc(C(CC(N)=O)NC(=O)c3ccc(Br)cc3)cc2[N+](=O)[O-])cc1 (centres undefined) | inconclusive: 39.8 µM [inhibitor, single point] | –
COc1ccc(C(=O)/C=C/C(=O)N(CC(=O)NC2CCCCC2)CC2CCCO2)c(O)c1 (centres undefined) | active: 3.77 µM | –
Cc1cc(N2CCN(C(=O)c3ccco3)CC2)n2nc(-c3cccc(Cl)c3)cc2n1 | active: 20 µM | –
Cc1ccccc1Nc1nc(Nc2ccccc2C)nc(SC2=NCCS2)n1 | inconclusive: 31.6 µM [inhibitor, partial curve, poor fit] | –
N#CC(=C(N)Sc1ccccc1N)C(C#N)=C(N)Sc1ccccc1N | inconclusive: 4.85 µM [inhibitor, partial curve, poor fit] | –
O=C1C=C(c2ccc(-c3ccccc3)cc2)C[C@@H](c2ccc(F)cc2)C1 | – | inactive: 8.59%
COc1ccc(C(=O)/C=C/C(=O)N(CC(=O)NC2CCCCC2)Cc2ccccc2)c(O)c1 | inconclusive: 28.2 µM [inhibitor, single point] | –
COc1cc(/C=N/NC(=S)Nc2cccc(S(=O)(=O)N(C)C)c2)ccc1O | – | inactive: 30.5%
COc1cc2c(cc1OC)-c1cc(Nc3ccc(N(C)C)cc3)nc(=O)n1CC2 | – | inactive: 11.8%
COc1ccc(CSCC(=O)N/N=C/c2ccccc2O)cc1 | active: 25.1 µM | –
CC(C)C(N)c1csc(Nc2ccc(C(F)(F)F)cn2)n1 (centres undefined) | inconclusive: 35.5 µM [inhibitor, single point] | –

Structure (SMILES) | Potency | activity change, negative = inhibition
CCOC(=O)C1CCCN(c2ccc(NC(=O)c3snc4c(=O)[nH]c(C)nc34)cc2)C1 (centres undefined) | inconclusive: 25.1 µM [inhibitor, single point] | –
Cc1cc(C(=O)N/N=C/c2cc([N+](=O)[O-])ccc2O)c2ccccc2n1 | inconclusive: 28.2 µM [inhibitor, partial curve] | –
CCOC(=O)C(C)n1nc(C)c2sc3ccccc3c2c1=O (centres undefined) | – | inactive: -2.19%
COc1ccc(S(=O)(=O)N2CCN(CC(=O)Nc3ccc(Cl)c(C(F)(F)F)c3)CC2)cc1 | inconclusive: 28.2 µM [inhibitor, single point] | –
Cn1ccc2c(N3CCCC3)cc3c(c21)C1CCC3C1 (centres undefined) | inconclusive: 11.2 µM [inhibitor, partial curve, poor fit] | –
COc1cc(N(C)C)ccc1C=c1c2ccccc2n2c1cc(-c1ccccc1)[n+]2C | active: 11.9 µM | –
CCOc1ccc(CNC(=O)c2sc3ncnc(N(C)C4CCCCC4)c3c2C)cc1 | inconclusive: 31.6 µM [inhibitor, partial curve, poor fit] | –
Cc1ccc(C(=O)n2nc(-c3cccnc3)nc2N)cc1 | – | inactive: -13.9%
Cc1cc(C[n+]2ncsc2N)c2ncccc2c1 | inconclusive: 12.6 µM [inhibitor, partial curve, poor fit] | –
C[C@]12c3[nH]c4cc(-c5ccco5)ccc4c3CCN1C(=O)[C@@H](CC(=O)NCC13CC4CC(CC(C4)C1)C3)C[C@@H]2C(=O)N1CCOCC1 | inconclusive: 39.8 µM [inhibitor, single point] | –
COc1ccccc1NC(=O)c1cnc(Nc2ccccc2OC)c2ccccc12 | inconclusive: 0.794 µM [inhibitor, partial curve, poor fit] | –
CC1(C)CC(=O)C2=C(C1)OC(N)=C(C#N)C21C(=O)N2CCCc3cccc1c32 (centres undefined) | – | inactive: -2.47%
COc1ccc(OCC(=O)Nc2cc(-c3nn(C)c(=O)c4ccccc34)ccc2OC)cc1 | inconclusive: 31.6 µM [inhibitor, partial curve, poor fit] | –
COc1ccc(CNCc2cc(Cl)ccc2O)cc1 | – | inactive: 2.51%
O=[N+]([O-])c1cccc(N/N=C/c2ccc(N3CCOCC3)cc2)c1 | inconclusive: 39.8 µM [inhibitor, single point] | –
O=C(Nc1ccc(Cl)cn1)c1cccc(S(=O)(=O)N2CCOCC2)c1 | – | inactive: 5.93%
Cc1cc(C)c2c(n1)nn1c(NCCOCCO)cc(C)nc21 | – | inactive: -29.1%
NC(Cc1ccc(F)cc1)c1csc(Nc2ccc(C(=O)c3ccccc3)cc2)n1 (centres undefined) | inconclusive: 31.6 µM [inhibitor, single point] | –
COc1ccc(-n2ncc3c(N4CCCCC4)ncnc32)cc1 | inconclusive: 4.47 µM [inhibitor, partial curve, poor fit] | –
CCC(=O)NC(=S)Nc1c(C)cc(Br)cc1C | – | inactive: -4.51%
Cc1ccc(NC(=S)N(CCCN2CCC(C)CC2)Cc2ccco2)cc1C | – | inactive: -27%
C=CC[C@@H](CC(=O)NCCO)C(=O)N[C@H](COC(=O)[C@@H](CC=C)Cc1ccc(F)cc1)Cc1c[nH]c2ccccc12 | inconclusive: 39.8 µM [inhibitor, single point] | –
